We go through 63 molecules from PubChem BioAssay AID1159614 (National Center for Advancing Translational Sciences (NCATS), 2016).

Screen size: about 45,000 compounds; about 65 (0.1%) were called active. The call rests on the fitted dose curve; in most records, active means well fitted activation curve with a large enough effect; inconclusive means small, poorly fitted or top-dose-only effect; inactive means no such curve, though single readings can be large or run the other way. Some of the results follow.
Potency means the concentration at half of the fitted maximal effect.

Sequence of UniProt P54803 (P54803 whole entry, looked up): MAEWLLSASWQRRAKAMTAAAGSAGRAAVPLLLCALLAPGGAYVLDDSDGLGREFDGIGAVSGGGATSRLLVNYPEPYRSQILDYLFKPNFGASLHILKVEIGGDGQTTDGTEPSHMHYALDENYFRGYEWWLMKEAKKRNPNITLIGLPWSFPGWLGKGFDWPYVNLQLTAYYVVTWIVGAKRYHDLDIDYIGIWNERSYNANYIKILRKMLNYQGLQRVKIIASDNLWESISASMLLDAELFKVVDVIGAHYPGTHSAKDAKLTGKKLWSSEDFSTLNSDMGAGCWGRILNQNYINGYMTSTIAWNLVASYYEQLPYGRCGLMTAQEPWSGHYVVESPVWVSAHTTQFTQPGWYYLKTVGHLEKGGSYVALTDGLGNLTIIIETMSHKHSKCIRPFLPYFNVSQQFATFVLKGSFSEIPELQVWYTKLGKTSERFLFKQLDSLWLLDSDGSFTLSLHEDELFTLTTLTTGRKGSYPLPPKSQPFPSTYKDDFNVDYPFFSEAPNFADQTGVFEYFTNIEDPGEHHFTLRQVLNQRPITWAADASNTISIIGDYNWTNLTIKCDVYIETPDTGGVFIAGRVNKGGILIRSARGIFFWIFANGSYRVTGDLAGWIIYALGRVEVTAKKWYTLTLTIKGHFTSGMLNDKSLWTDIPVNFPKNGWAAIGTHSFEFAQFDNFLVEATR

The assay deals with Galactocerebrosidase (Homo sapiens) (UniProt P54803). Put plainly: A Novel Cell-Based Assay to Identify Small Molecules for B -Galactocerebrosidase. Further: nearly all actives have a fitted effect of over 65% in size. On activation: 0% is about no effect. The settings on record: 145M-Twi-hGALC-G270D cells (Twitcher mouse brain line with human GALC G270D), HMU-beta-Gal fluorescence, 48 h; series mostly up to 57.5 µM; activation: at the top concentration. Put shortly:
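Live 145M-Twi cells (Twitcher mouse brain-derived, GALC-null) stably expressing human GALC-G270D, with a wild-type GALC line, were compound-treated. Residual GALC activity was then read as fluorescence from 0.1 mM final HMU-β-gal at pH 5.2; higher signal means activation.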
With `Cc1ccc(-c2noc(CN(C3CCCCC3)S(=O)(=O)c3ccc(C)cc3)n2)cc1`, the “activation” value was inactive: -15.1%.

As to `COc1cccc(-c2nnc3n(Cc4ccc(F)cc4)c(=O)c4ccccc4n23)c1`, the “activation” value is inactive: -20.8%.

Regarding `CN(C)c1ccc(C(CNS(=O)(=O)c2ccc(Cl)cc2)N2CCCC2)cc1` (stereo not drawn), the “activation” value is inactive: -27.4%.

Turning to `CC1=C(C(=O)Nc2ccc(C)cc2C)C(c2ccccc2C)n2ncnc2N1` (stereo not drawn), the “activation” value is inactive: 0.365%.

On to `COc1ccc(CCNC(=O)NCc2noc3ccccc23)c(OC)c1`, for which the “activation” value is inactive: -14.1%.

`COc1ccccc1CNC(=O)C1CCN(Cc2nc(-c3ccc(OC)c(OC)c3)oc2C)CC1`: the “activation” value is inactive: 5.42%.

With `C#C[C@]1(O)CC[C@H]2[C@@H]3CCc4cc(OC)ccc4[C@H]3CC[C@@]21C`, the “activation” value is inactive: -12.3%.

Turning to `Cc1ccccc1CNC(=O)c1ccc(-n2c(C)cc3c2CCCC3)cc1`, the “activation” value is inactive: -14.2%.

As to `CCCN(CCC)C(=O)Cn1c(=O)n(Cc2ccc(C(=O)NCCc3ccc(OC)c(OC)c3)cc2)c(=O)c2ccccc21`, the “activation” value is inactive: 22.1%.

On to `COCCNC(=O)c1ccc(Cn2c(SCC(=O)NC(C)C)nc3ccccc3c2=O)cc1`, for which the “activation” value was inactive: -9.94%.

As to `CC1=C(C(=O)Nc2ccc(C)cc2C)C(c2sccc2C)n2ncnc2N1` (stereo not drawn), the “activation” value was inactive: -5.93%.

Turning to `COc1ccc(-n2c(SCC(=O)N3CCC(C)CC3)nc3c([nH]c4ccccc43)c2=O)cc1`, the “activation” value was inactive: -16.3%.

Take `COCCCNC(=O)c1cc(-c2cccnc2)nc2ccccc12`: the “activation” value is inactive: -1.34%.

Consider `CCOc1ccccc1-c1nnc(SCc2ccc(Cl)cc2)o1`, for which the “activation” value was inactive: -11.3%.

On to `COc1ccc(OC)c(NC(=O)c2csnn2)c1`, for which the “activation” value is inactive: -18.6%.

As for `COc1cc(C=O)ccc1O`, the “activation” value is inactive: -15.9%.

Consider `CCOc1ccccc1N(C)C(=O)c1nn(-c2ccc(C)cc2)c(=O)c2c1c1ccccc1n2C`, for which the “activation” value was inactive: -10.9%.

In the case of `COc1ccc(CNC(=O)c2ccc3c(c2)N(Cc2ccccc2)C(=O)c2ccccc2S3(=O)=O)cc1`, the “activation” value was inactive: -12.2%.

In the case of `COc1ccc(-c2cc3nc(C4CCN(C(=O)OC(C)(C)C)CC4)c(C(=O)Nc4cc(Cl)cc(Cl)c4)cn3n2)cc1`, the “activation” value is inactive: -6.28%.

On to `O=C(Nc1nnc(S(=O)(=O)N2CCCc3ccccc32)s1)c1ccccc1Br`, for which the “activation” value is inactive: -10%.

Take `Cc1ccc2occ(CC(=O)Nc3nnc(C(C)C)s3)c2c1`: the “activation” value was inactive: -13.2%.

Consider `COc1ccc2cccc(CCNC(C)=O)c2c1`, for which the “activation” value was inactive: -14.4%.

For `CCOc1cccc(C2c3c(oc4ccccc4c3=O)C(=O)N2c2nc(C)c(C(=O)OC)s2)c1` (stereo not drawn), the “activation” value was inactive: -9.63%.

Turning to `CCOc1ccc(NC(=O)c2cccc(N3CCCS3(=O)=O)c2)cc1`, the “activation” value is inactive: -10.3%.

For the molecule `Cc1ccc(C)c(N2CCN(C(=O)CN3C(=O)COc4ccc(S(=O)(=O)N5CCOCC5)cc43)CC2)c1`, the “activation” value was inactive: -16.1%.

Regarding `CCN(c1cccc(C)c1)C(CNS(=O)(=O)c1ccccc1)c1ccccc1` (stereo not drawn), the “activation” value is inactive: -11%.

Turning to `Cc1cccc(-c2cc(NC(=O)c3ccccc3C)n(-c3ccccc3)n2)c1`, the “activation” value was inactive: -11.5%.

For the molecule `COC(=O)c1cc2sccc2n1Cc1ccc(F)cc1`, the “activation” value is inactive: -18.3%.

For `CCCCC(=O)Nc1nnc(S(=O)(=O)N2CCCCCC2)s1`, the “activation” value is inactive: -12.8%.

For the molecule `O=C(Nc1ccc(F)c(Cl)c1)C1CCCN(c2ncnc3onc(-c4ccc(F)cc4)c23)C1` (stereo not drawn), the “activation” value is inactive: -4.84%.

For the molecule `CCC(=O)N1c2ccccc2CC1C(=O)NCCCN1CCN(c2ccccc2)CC1` (stereo not drawn), the “activation” value is inactive: -30.3%.

With `COc1ccccc1CNC(=O)c1cc2sccc2n1Cc1ccc(F)cc1`, the “activation” value was inactive: -24.8%.

As for `Cc1ccc(C)c(NC(=O)c2cc(S(=O)(=O)N3CCc4ccccc4C3)ccc2F)c1`, the “activation” value was inactive: -3.23%.

For the molecule `COc1ccc(C2C=C(c3ccc(C)cc3)Nc3c(C(=O)Nc4ccccc4)cnn32)cc1` (stereo not drawn), the “activation” value was inactive: -14.2%.

Turning to `CCCS(=O)(=O)c1c(S(=O)(=O)CCC)c2cc(C(C)(C)C)ccn2c1C(=O)c1ccc(OC)c(OC)c1`, the “activation” value was inactive: -12.8%.

For the molecule `COc1ccc(Br)cc1CNC(=O)CCCn1c(=O)c2cccn2c2cccnc21`, the “activation” value was inactive: 16.5%.

Turning to `CCc1cccc(NC(=O)Cn2c(C(=O)OC)cc3occc32)c1`, the “activation” value is inactive: -26.1%.

For the molecule `COCCCn1c(SCc2ccccc2F)nc2c(sc3ccccc32)c1=O`, the Potency is active: 31.6 µM.

For `COc1ccccc1NC(=O)Cn1c(=O)n(-c2ccccc2Cl)c(=O)c2sc3ccccc3c21`, the “activation” value was inactive: -2.76%.

For the molecule `O=C(Cn1ncc2c3ccccc3n(Cc3ccccc3)c2c1=O)N1CCCCCC1`, the “activation” value was inactive: -11.3%.

For the molecule `COc1ccc(-c2noc(-c3ccccc3OCC(=O)Nc3ccc(C(C)=O)cc3)n2)cc1`, the “activation” value was inactive: -11%.

Take `CN=C(NC#N)NCCSCc1nc[nH]c1C`: the “activation” value is inactive: -6.7%.

As to `CCOC(=O)c1[nH]c2ccccc2c1NC(=O)c1cc(Cl)ccc1Cl`, the “activation” value was inactive: -22.7%.

For `CCN(CC)S(=O)(=O)c1ccc2c(c1)N(CC(=O)Nc1ccc(F)cc1F)C(=O)C1CCCN21` (stereo not drawn), the “activation” value was inactive: -14.2%.

As for `Cc1ccc(CNc2ccc(-c3nc(-c4cccnc4)no3)cc2[N+](=O)[O-])cc1`, the “activation” value is inactive: -8.3%.

With `COc1ccc(CNC(=O)CCCCCn2c(=O)[nH]c3ccccc3c2=O)cc1`, the “activation” value was inactive: -12.5%.

Take `Oc1cccc(-c2nc3ncccn3c2Nc2cccc(C(F)(F)F)c2)c1`: the “activation” value is inactive: 1.39%.

`NCCO`: the “activation” value was inactive: -18% [at 114 µM].

Take `COc1cc(NC(=O)Cn2c(C)cc(C)c(C#N)c2=O)cc(OC)c1`: the “activation” value was inactive: -12.1%.

`CCOC(=O)c1[nH]c2ccccc2c1NC(=O)c1ccc(OC)c(OC)c1`: the “activation” value is inactive: -8.51%.

In the case of `CCn1cc(C(=O)NCCc2ccc(Cl)cc2)c(=O)c2cc(S(=O)(=O)N3CCOCC3)ccc21`, the “activation” value was inactive: -9.12%.

As to `Cc1ccc2c(=O)cc(C(=O)Nc3ccc(S(=O)(=O)N4CCCCC4)cc3)oc2c1C`, the “activation” value is inactive: -15%.

Turning to `Cc1cccc(N2CCN(c3ncnc4onc(-c5ccc(F)cc5)c34)CC2C)c1` (stereo not drawn), the “activation” value is inactive: -10.6%.

For the molecule `COc1ccccc1Cc1nc2ccccc2nc1SCC(=O)NCc1ccc(F)cc1`, the “activation” value is inactive: -5.92%.

With `COc1ccccc1Nc1nc2c(S(=O)(=O)c3ccc(C(C)C)cc3)nnn2c2ccsc12`, the “activation” value is inactive: -12.6%.

With `CC(C)(C)C(=O)Nc1ccc(Cl)c(-c2nc3ccccc3[nH]2)c1`, the “activation” value was inactive: -8.7%.

`O=C(Cn1c(=O)n(Cc2ccc(C(=O)NCc3ccccc3Cl)cc2)c(=O)c2ccccc21)Nc1ccc(F)cc1`: the “activation” value is inactive: -5.24%.

As for `Cc1coc2cc3oc(=O)c(CC(=O)NCCc4ccccc4F)c(C)c3cc12`, the “activation” value is inactive: -9.54%.

With `Cc1c(-c2ccccc2)n(-c2ccc(Cl)cc2)c2nc3c(c(=O)n(C)c(=O)n3C)n12`, the “activation” value is inactive: -12.6%.

In the case of `Cc1cc(C)c2oc(-c3ccc(NC(=O)c4cc(Br)ccc4Cl)cc3)nc2c1`, the “activation” value was inactive: -22.1%.

In the case of `Cc1ccc(NC(=O)CCc2nc3cccnc3n2-c2ccccc2)cc1`, the “activation” value is inactive: -10.7%.

`O=C(Nc1cccc(Cl)c1)N1Cc2ccccc2Oc2ncccc21`: the “activation” value is inactive: -2.35%.

As to `CCc1ccc(NC(=O)CN2C(=O)C(=O)c3ccccc32)cc1`, the “activation” value was inactive: -10.9%.
